From the supplement of paper PMC12645437, “Orthogonal IMiD-Degron Pairs Induce Selective Protein Degradation in Cells” (ACS Chemical Biology, 2025)
The list shows a part of the results.

Target: no compound (DMSO)
Assay: log2 fold change of degron read counts, EGFP-low vs EGFP+ sorted cells; higher = lower degron-EGFP level without compound (poor expression or instability)
Conditions: compound: DMSO control; 18 h
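Note: jurkat cells carrying a lentiviral library of mutant zinc finger degrons fused to EGFP plus mCherry, mCherry+ cells FACS sorted, degron abundance counted by next-generation sequencing.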

Sequence	log2 fold change of degron read counts
LKCPICGFFCTQKGNLLRHIKL	1.38
FGCEVCGAWFTQKGNLLRHIKL	-0.242
FCCEVCGAIFTQKGNLLRHIKL	-0.723
FECPICGRPFTQKGNLLRHIKL	-0.589
FNCEICGHTFTQKGNLLRHIKL	-2.82
FECPICGHNFTQKGNLLRHIKL	-0.87
FVCPICGHFFTQKGNLLRHIKL	0.26
FRCEQCGAAFTQKGNLLRHIKL	-2.38
FCCEICGHMFTQKGNLLRHIKL	-0.854
FRCPQCGARFTQKGNLLRHIKL	-0.236
FKCPICGRCFTQKGNLLRHIKL	-0.178
FDCPICGHFFTQKGNLLRHIKL	0.173
FECDQCGAEFTQKGNLLRHIKL	-0.984
FMCNQCGHGFTQKGNLLRHIKL	-0.61
FWCNQCGAIFTQKGNLLRHIKL	1.24
FMCDICGAAFTQKGNLLRHIKL	-0.975
LYCPICGFACTQKGNLLRHIKL	0.324
FRCDQCGALFTQKGNLLRHIKL	-2.04
FDCPICGHGFTQKGNLLRHIKL	-0.665
FKCDVCGAMFTQKGNLLRHIKL	-1.75
LDCEICGFCCTQKGNLLRHIKL	-0.172
FYCDQCGAYFTQKGNLLRHIKL	0.171
LSCPICGFECTQKGNLLRHIKL	-0.0873
LICPICGFTCTQKGNLLRHIKL	0.597
FNCPICGHVFTQKGNLLRHIKL	-0.373

Sequence	log2 fold change of degron read counts
FECPICGRWFTQKGNLLRHIKL	0.186
FTCPICGHKFTQKGNLLRHIKL	-0.158
FNCEQCGASFTQKGNLLRHIKL	-1.92
FTCNQCGAGFTQKGNLLRHIKL	-0.763
FSCEQCGARFTQKGNLLRHIKL	-2.05
FMCEVCGAMFTQKGNLLRHIKL	-1.14
FWCEQCGAIFTQKGNLLRHIKL	0.478
LHCNQCGFECTQKGNLLRHIKL	-0.602
FLCPVCGAMFTQKGNLLRHIKL	-0.0801
FFCEICGRFFTQKGNLLRHIKL	0.404
LACPICGFTCTQKGNLLRHIKL	0.736
FICPICGAPFTQKGNLLRHIKL	0.489
FFCNQCGRRFTQKGNLLRHIKL	0.541
FECEICGASFTQKGNLLRHIKL	-1.25
FNCEQCGAMFTQKGNLLRHIKL	-1.4
FYCNQCGRSFTQKGNLLRHIKL	1.06
FLCSVCGHKFTQKGNLLRHIKL	-0.569
LICNQCGFGCTQKGNLLRHIKL	0.548
FQCEICGHGFTQKGNLLRHIKL	-2.98
FGCDVCGAYFTQKGNLLRHIKL	0.0431
FHCNVCGAHFTQKGNLLRHIKL	-1.38
FACNICGASFTQKGNLLRHIKL	-0.944
FQCPICGREFTQKGNLLRHIKL	0.0797
FECNVCGASFTQKGNLLRHIKL	-1.82
FWCDICGALFTQKGNLLRHIKL	0.67
